PubChem BioAssay AID493131 (Broad Institute, 2011)
About 3,300 (0.97%) of roughly 340,000 compounds were called active. The shares of active, inactive and inconclusive entries below differ from those in the screen.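 How the source made its calls: active means mean activation above about 17%, with every replicate also reaching it (limit read from the data, passing the limit was not always enough); inconclusive means only one of the two conditions met; inactive means the rest.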

Target: Protein FosB (Mus musculus) (UniProt P13346)
Chain of UniProt P13346 (P13346 whole entry, looked up): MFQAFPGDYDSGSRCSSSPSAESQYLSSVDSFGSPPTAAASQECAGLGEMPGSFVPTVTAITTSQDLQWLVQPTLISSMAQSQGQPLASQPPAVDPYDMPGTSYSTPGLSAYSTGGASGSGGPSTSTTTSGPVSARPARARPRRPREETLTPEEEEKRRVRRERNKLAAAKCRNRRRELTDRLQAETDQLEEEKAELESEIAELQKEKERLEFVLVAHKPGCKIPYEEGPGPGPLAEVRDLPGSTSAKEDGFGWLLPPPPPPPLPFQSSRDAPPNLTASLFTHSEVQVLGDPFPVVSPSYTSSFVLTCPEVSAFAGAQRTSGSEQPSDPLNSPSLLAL
Assay: enhancers of mouse delta FosB DNA binding – biochemical, fluorescence polarization, TAMRA-CDK5 oligo, single point, primary screen (AID 493131);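 further: fluorescence polarization rise as delta FosB binds a TAMRA Cdk5 AP-1 oligo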
Conditions: purified delta FosB, at 25 µM, stronger effect = higher value, percent of positive-control signal above neutral wells

SMILES | activation
CS(=O)(=O)c1ccc(Cl)c(NC(=O)Cc2c(Cl)cccc2Cl)c1 | active: 41%
Cc1ccc(NC(=O)c2cc(N3C(=O)C=CC3=O)ccc2Cl)cc1C | inactive: -12.8%
O=C(N/N=C/c1ccncc1)c1cc2ccccc2cc1O | inactive: 3.68%
O=C(CCS(=O)(=O)c1ccccc1)NCCS(=O)(=O)c1ccccc1 | inactive: 1.09%
Cn1c(SCC(=O)NCC2CCCO2)ncc(C(=O)Nc2ccc(F)cc2)c1=O (stereo unspecified) | inactive: -8.65%
COc1cccc(N2CCN(C(=S)Nc3ccc(F)cc3)CC2)c1 | inconclusive: 18.4%
COc1cc(/C=N/Nc2nc(Nc3ccccc3)nc(-n3nc(C)cc3C)n2)cc(OC)c1OC | inconclusive: 22.1%
COc1cccc(-c2nnn(CC(=O)Nc3cc(OC)c(NC(=O)c4ccco4)cc3OC)n2)c1 | active: 17.4%
O=C(NCc1cccs1)C1CCN(S(=O)(=O)c2cccc3nsnc23)CC1 | inconclusive: 17.6%
O=C(NCc1ccc(F)cc1)C1C2C=CC3(CN(Cc4cccnc4)C(=O)C13)O2 (stereo unspecified) | inactive: -5.37%
CCOc1ccc(NC(=O)CN(C)C(=O)c2ccc3nc(CC)c(CC)nc3c2)cc1OCC | inactive: -2.62%
C=CCOc1ccccc1CN1CCCCCC1 | inactive: -5.6%
Cn1c(=O)c(C(=O)CSc2nnc(Nc3ccccc3)s2)c(N)n(Cc2ccccc2)c1=O | inconclusive: 17.1%
COc1cc(C(=O)NCc2ccc(-c3nc4ccccc4o3)cc2)cc(OC)c1OC | active: 27.3%
O=C(Nc1nc2ccc(Cl)cc2s1)c1ccc(N2CCCCC2)c([N+](=O)[O-])c1 | inconclusive: 22.1%
O=C(Nc1ccc(CSc2ccccc2)cc1)c1ccco1 | inconclusive: 22.2%
CNC[C@H](CC1CCCCC1)NC[C@H](Cc1ccccc1)NCCC12CC3CC(CC(C3)C1)C2 | inconclusive: 16.7%
CNC(=O)c1c[nH]c2ccc(S(=O)(=O)Nc3cccc(SC)c3)cc2c1=O | active: 19.4%
O=C(Nc1ccc2ccccc2c1)c1ccccc1[N+](=O)[O-] | inactive: -8.87%

SMILES | activation
CC(=O)Nc1ccc(NC(=O)CC(NC(=O)c2ccccc2)c2ccccc2)cc1 (stereo unspecified) | inconclusive: 16.3%
Cc1ccc(C(C)C)c(OCC(=O)NNC(=O)Cn2[nH]c(=O)c3ccccc3c2=O)c1 | active: 34.6%
Cc1ccc(-c2n[nH]c(S(C)(=O)=O)c2C#N)cc1 | inactive: -2.09%
COc1ccc(NC(=O)Nc2nnc(-c3ccccc3F)s2)cc1 | inconclusive: 16.2%
COc1ccc(NC(=O)CCc2nnc3ccc(NCc4ccc5c(c4)OCO5)nn23)cc1 | inconclusive: 40.6%
CCN1CCN(c2cc(C)c3cc(NC(=S)NCCCN4CCc5ccccc5C4)ccc3n2)CC1 | active: 36.7%
Cc1ccc(CNC(=O)CSc2nnc3c(n2)[nH]c2ccccc23)cc1 | active: 28.2%
COc1ccc(C2CC(=O)c3c(O)cc(O)cc3O2)cc1O (stereo unspecified) | inactive: 1.5%
Cc1ccccc1NC(=O)c1ccc2ccccc2c1 | inactive: -1.85%
CCOc1ccc(C(=O)NN2CCOCC2)cc1 | inactive: -1.61%
O=C(Nc1cc(SCC(O)CO)cc([N+](=O)[O-])c1)c1ccc(-n2cnnn2)cc1 (stereo unspecified) | inconclusive: 18.9%
CCOC(=O)Nc1ccc2c(COC(=O)CN(C)S(=O)(=O)c3ccc(C)cc3)cc(=O)oc2c1 | active: 36%
Cc1ccccc1NC(=O)Cc1nc(COC(=O)c2cc(Br)ccc2O)cs1 | inconclusive: 18.3%
CC(=O)Nc1cc2cc(NS(=O)(=O)c3ccc(C)cc3)ccc2oc1=O | active: 155%
CC(=O)c1ccc(NC(=S)NC(=O)Cc2ccc(Cl)cc2)cc1 | inconclusive: 17%
Cc1ccc(C(=O)Nc2ncc(Cc3ccc(F)cc3)s2)o1 | inactive: -11.3%
Cc1[nH]c2ccccc2c1/C=N/Nc1nc(Nc2ccccc2)nc(N2CCOCC2)n1 | active: 23.5%
COc1ccc(OC)c(/C=N/NC(=O)c2nnn(-c3nonc3N)c2-c2cccs2)c1 | inconclusive: 18.7%
CCOc1ccc(S(=O)(=O)NCc2ccccn2)cc1 | inactive: -1.38%

SMILES | activation
NCCNc1ccc(C(=O)N2c3ccccc3Sc3ccccc32)cc1[N+](=O)[O-] | active: 53.8%
COc1ccccc1NC(=O)Cn1nnc(C(=O)NCc2cccs2)c1N | active: 22.2%
CCCNc1c(NS(=O)(=O)c2ccc(C(C)(C)C)cc2)c(=O)oc2ccccc12 | inactive: 2.6%
CCN(CC)CCN(C(=O)c1cc2c(ccc3ccccc32)oc1=O)c1nc2cc3c(cc2s1)OCCO3 | active: 71.1%
O=C(Nc1cccc(Cl)c1)c1cnn2cccnc12 | inactive: -13%
CCCOc1ccc(NC(=O)CC2C(=O)N(c3ccc(OCC)cc3)C(=S)N2C2CC2)cc1 (stereo unspecified) | inconclusive: 19.3%
Cc1cc(C)nc(NC(=O)c2ccc(Br)cc2)n1 | inactive: -3.11%
CN(CC(=O)Nc1ccc(Cl)c(C(F)(F)F)c1)C(=O)c1cc(-c2ccncc2)nc2ccccc12 | active: 65.7%
O=c1c2ccccc2oc2cc(NCCCN3CCOCC3)ccc12 | inconclusive: 18.5%
CCn1c(SCC(=O)Nc2cc(C)on2)nc2sc3c(c2c1=O)CCCC3 | inconclusive: 16.1%
Cc1ccc(S(=O)(=O)NCC(=O)N2CCCCC2)cc1 | inactive: 1.26%
O=C(CSc1nnc2c(n1)[nH]c1ccc(F)cc12)OCc1ccccc1 | inconclusive: 20.9%
Oc1ccc(Nc2ccnc3cc(Cl)ccc23)cc1 | inconclusive: 20.4%
CC(=O)c1nn(-c2cccc(Br)c2)cc1C(=O)c1ccc(C)cc1 | inconclusive: 24.7%
CCc1cccc(NC(=O)Cn2c(=O)c3cccn3c3ccccc32)c1 | inconclusive: 22.7%
O=C(NC(=S)Nc1ccc2oc(=O)ccc2c1)c1ccccc1F | inconclusive: 19.8%
COc1ccc(NC(=O)Cn2nnc(-c3ccccc3NC(=O)c3ccco3)n2)cc1 | active: 26.5%
O=C(CCC(=O)c1ccc(F)cc1)Nc1cccc(S(=O)(=O)Nc2cccc(Cl)c2)c1 | inconclusive: 20.7%
